Laboratory results: article PMC6168263 (The Journal of Cell Biology, 2018)

Key:
[1] = molecular target: the molecule itself; assay: negative-stain single-particle EM
MBP-Hof1-FL-6His = molecular target: T1, MBP-Hof1-FL-6His (S. cerevisiae, UniProt Q05080 1-669); assay: negative-stain single-particle EM
T1 sequence (looked up): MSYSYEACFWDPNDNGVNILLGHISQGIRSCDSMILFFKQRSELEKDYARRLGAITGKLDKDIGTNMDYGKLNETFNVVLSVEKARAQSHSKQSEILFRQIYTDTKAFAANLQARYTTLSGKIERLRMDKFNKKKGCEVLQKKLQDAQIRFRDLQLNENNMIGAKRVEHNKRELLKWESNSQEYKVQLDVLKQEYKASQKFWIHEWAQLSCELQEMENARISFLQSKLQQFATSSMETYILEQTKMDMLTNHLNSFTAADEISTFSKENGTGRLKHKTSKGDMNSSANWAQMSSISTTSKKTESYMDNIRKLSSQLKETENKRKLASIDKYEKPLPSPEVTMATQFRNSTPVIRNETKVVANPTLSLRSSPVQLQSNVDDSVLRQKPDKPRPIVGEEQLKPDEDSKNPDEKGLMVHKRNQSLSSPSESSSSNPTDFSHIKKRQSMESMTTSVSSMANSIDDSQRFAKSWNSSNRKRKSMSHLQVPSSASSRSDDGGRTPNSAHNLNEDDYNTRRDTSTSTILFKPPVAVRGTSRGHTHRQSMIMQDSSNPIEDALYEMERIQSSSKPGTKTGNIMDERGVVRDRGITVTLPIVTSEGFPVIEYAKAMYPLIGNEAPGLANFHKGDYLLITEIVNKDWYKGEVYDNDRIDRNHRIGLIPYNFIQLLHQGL

B1: 6His-Bnr1 FH1-FH2-C (residues 757-1,375) (domain or fragment)
chain: not shown
[1]
  stoichiometry N: 2
MBP-Hof1-FL-6His
  binding result: binds
